# Results taken from PubChem BioAssay (NCI).
#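 A five-concentration, 48-hour dose response in 96-well plates underlies each endpoint, interpolated linearly between surrounding concentrations. GI50: concentration for 50% inhibition of growth. At the TGI there is no net growth.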
# System: NCI-H322M lung
# Assay: NCI-60 cell line screen, 48 h
SMILES,GI50,TGI
C/C1=C\[C@H](C)C[C@H](C)OC(=O)C[C@H](c2ccc(O)cc2)NC(=O)[C@@H](Cc2c(Br)[nH]c3ccccc23)N(C)C(=O)[C@H](C)NC(=O)[C@@H](C)C1,0.115 µM,> 26.1 µM
Cc1cc(C)c(S(=O)(=O)N(CCCCN)OCCCN)c(C)c1,–,30.2 µM
CC(=O)Oc1ccc(OC(C)=O)c2ccccc12,71.3 µM,> 100 µM
Clc1nc(-[n+]2ccc(-c3ccncc3)cc2)nc(Nc2ccccc2)c1Cl,–,> 100 µM
Cc1ccc(Cl)cc1Nc1nc(C(F)(F)F)ccc1C(=O)Nc1cccc(C(F)(F)F)c1,4.29 µM,16.7 µM
Cn1c2ccccc2c(=Nc2ccccc2)c2c3ccccc3[nH]c21,1.98 µM,4.02 µM
O=C(CC(=O)N1N=C(c2ccccc2)C(N=Nc2ccc(C(=O)O)cc2)C1=O)Nc1ccc(F)cc1 (stereo unspecified),–,86 µM
OCC(O)C(O)c1nn(-c2ccccc2)c2nc3cc(Cl)c(Cl)cc3nc12 (stereo unspecified),–,> 100 µM
Cn1c(=O)c2c(-c3ccccc3)onc2n(C)c1=O,–,> 100 µM
COc1ccccc1/C=C\c1cnnc2ccccc12,–,> 10 µM
Cc1c2c3cc(O)ccc3nc-2n(C)c2ccccc12,–,4.5 µM
O=C(N/N=C\c1cccc2ccccc12)Nc1ccc([N+](=O)[O-])cc1,–,> 100 µM
Cc1cc(C)cc(-n2c3nc(=O)n(C)c(=O)c-3nc3ccccc32)c1,–,92.8 µM
C=CN1C(=O)OC(c2ccccc2)C1c1ccccc1 (stereo unspecified),> 100 µM,> 100 µM
N#Cc1c(Nc2ccc(F)cc2)[n+]([O-])c2ccc(Cl)cc2[n+]1[O-],–,> 100 µM
COc1ccc(C2(c3ccc(OC)cc3)OC(=O)c3cccc4cccc2c34)cc1,–,6.37 µM
COc1cc([C@@H]2c3cc4c(cc3[C@@H](NC(=O)c3ccc(N)cc3)C3COC(=O)[C@@H]32)OCO4)cc(OC)c1O (stereo partly specified),–,> 100 µM
Cc1cc(NS(=O)(=O)c2ccc(Nc3c4ccccc4nc4c(C(=O)Nc5ccc(S(=O)(=O)N=C(N)N)cc5)cccc34)cc2)no1,–,> 100 µM
O=C1C2c3[nH]c4ccccc4c3[C@@H]3CCCCCCCCCCC3C2C(=O)N1c1ccccc1 (stereo partly specified),–,> 100 µM
Cc1csc2c1C(=O)c1ccsc1C2=O,–,4.68 µM
CCOC1OCCCC1Br (stereo unspecified),–,> 100 µM
